The target in the assay is T1, biotinylated truncated STAT6 (123-632)-avi (Homo sapiens, UniProt P42226).
T1 sequence (P42226 123-632 limits assumed): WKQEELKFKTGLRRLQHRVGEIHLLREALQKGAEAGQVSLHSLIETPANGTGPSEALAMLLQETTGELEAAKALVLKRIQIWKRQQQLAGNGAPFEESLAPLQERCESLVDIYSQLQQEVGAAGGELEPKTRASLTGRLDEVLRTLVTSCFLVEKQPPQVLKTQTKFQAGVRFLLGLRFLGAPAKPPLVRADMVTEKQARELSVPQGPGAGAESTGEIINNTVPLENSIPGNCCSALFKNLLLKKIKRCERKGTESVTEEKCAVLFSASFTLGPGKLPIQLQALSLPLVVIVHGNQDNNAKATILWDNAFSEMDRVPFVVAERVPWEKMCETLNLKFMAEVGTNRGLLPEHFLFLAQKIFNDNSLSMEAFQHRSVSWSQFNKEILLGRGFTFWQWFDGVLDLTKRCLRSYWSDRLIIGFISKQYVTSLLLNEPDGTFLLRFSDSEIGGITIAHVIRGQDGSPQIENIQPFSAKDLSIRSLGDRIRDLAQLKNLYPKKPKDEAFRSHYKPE
Description: Homogenous Time-Resolved Fluorescence (HTRF) binding assay. To be noted: 0.15 nM biotinylated truncated STAT6 (123-632)-avi, 20 nM fluorescein-labeled probe, 30 minutes at room temperature.

Molecules are shown by their SMILES. Bounds are passed on as bounds.

With `CN(C)C(=O)c1cc2ccc(C3=CCCN(C(=O)C4CCN(S(C)(=O)=O)CC4)C3)cc2[nH]1` [Example I-140], the IC50 lay in the range of 10 to 100 µM.

The compound `COC(=O)c1ccc(OCC(=O)N2CCC=C(c3ccc4cc(C(=O)N(C)C)[nH]c4c3)C2)cc1` [Example I-142] returned an IC50 of 1 to 10 µM.

`CN(C)C(=O)c1cc2ccc(C3=CCCN(C(=O)c4snnc4C4CC4)C3)cc2[nH]1` [Example I-143] showed an IC50 of 10 to 100 µM.

`CN(C)C(=O)c1cc2ccc(C3=CCCN(C(=O)c4cc(C#N)ccc4Br)C3)cc2[nH]1` [Example I-144] yielded an IC50 of 0.1 to 1 µM.

`COCc1oncc1C(=O)N1CCC=C(c2ccc3cc(C(=O)N(C)C)[nH]c3c2)C1` [Example I-145] gave a concentration for half-maximal inhibition (IC50) of 1 to 10 µM.

`CN(C)C(=O)c1cc2ccc(C3=CCCN(C(=O)c4ccnnc4O)C3)cc2[nH]1` [Example I-146] had an IC50 of 10 to 100 µM.

Regarding `CN(C)C(=O)c1cc2cc(C3=CCCN(C(=O)CCc4nncs4)C3)ccc2o1` [Example I-147], the IC50 fell in the range of 0.1 to 1 µM.

`CNCc1cccc2c1CC(C(=O)N1CCC=C(c3ccc4oc(C(=O)N(C)C)cc4c3)C1)N(C=O)C2` (stereo not drawn) [Example I-148] showed an IC50 of 10 to 100 µM.

In turn, `COC(=O)C1CCC(c2ccc3oc(C(=O)N(C)C)cc3c2)CN1C(=O)CCn1ccnn1` (stereo not drawn) [Example I-149] had an IC50 of 10 to 100 µM.

Regarding `COC(=O)C1CCC(c2ccc3oc(C(=O)N(C)C)cc3c2)CN1C(=O)CCn1ccnn1` (stereo not drawn) [Example I-150], the IC50 was 10 to 100 µM.

For the compound `CCNC(Cn1ccnn1)C(=O)N1CCC=C(c2ccc3oc(C(=O)N(C)C)cc3c2)C1` (stereo not drawn) [Example I-153], the IC50 lay within 10 to 100 µM.

Regarding `CN(C)C(=O)c1cc2cc(C3CCC(CO)N(C(=O)CCn4ccnn4)C3)ccc2o1` (stereo not drawn) [Example I-154], the IC50 lay within 10 to 100 µM.

With `CN(C)C(=O)c1cc2ccc(C3=CCCN(C(=O)c4ccc(N5CCOCC5)c(F)c4)C3)cc2[nH]1` [Example I-158], the IC50 lay in the range of 1 to 10 µM.

Consider `CN(C)C(=O)c1cc2ccc(C3=CCCN(C(=O)C(CO)c4ccccc4)C3)cc2[nH]1` (stereo not drawn) [Example I-159], for which the IC50 was in the range of 10 to 100 µM.

`CN(C)C(=O)c1cc2ccc(C3=CCCN(C(=O)C(c4ccc(F)cc4)c4ccc(F)cc4)C3)cc2[nH]1` [Example I-160] returned an IC50 of 1 to 10 µM.

In turn, `CN(C)C(=O)c1cc2ccc(C3=CCCN(C(=O)CCc4ccc(C#N)cc4)C3)cc2[nH]1` [Example I-162] gave an IC50 of 1 to 10 µM.

Consider `CN(C)C(=O)c1cc2ccc(C3=CCCN(C(=O)C4CS(=O)(=O)C4)C3)cc2[nH]1` [Example I-163], for which the IC50 lay in the range of 10 to 100 µM.

`CN(C)C(=O)c1cc2cc(C3=CCCN(C(=O)CCc4ncns4)C3)ccc2o1` [Example I-165]: the IC50 was in the range of 10 to 100 µM.

In turn, `CN(C)C(=O)c1cc2cc(C3=CCCN(C(=O)CCc4nncc5ccccc45)C3)ccc2o1` [Example I-168] came in with an IC50 of 10 to 100 µM.

`CCN[C@H](Cn1ccnn1)C(=O)N1CCC=C(c2ccc3oc(C(=O)N(C)C)cc3c2)C1` [Example I-169] yielded a concentration for half-maximal inhibition (IC50) of 10 to 100 µM.

Compound `CC(=O)N1Cc2ccccc2CC1C(=O)N1CCC=C(c2ccc3oc(C(=O)N(C)C)cc3c2)C1` (stereo not drawn) [Example I-170] returned an IC50 of 10 to 100 µM.

Regarding `CN(C)C(=O)c1cc2cc(C3=CCCN(C(=O)C4Cc5c(cccc5OCCN)CN4C=O)C3)ccc2o1` (stereo not drawn) [Example I-171], the IC50 was 1 to 10 µM.

`CN(C)C(=O)c1cc2cc(C3=CCCN(C(=O)C4Cc5c(cccc5-n5cccn5)CN4C=O)C3)ccc2o1` (stereo not drawn) [Example I-172] displayed an IC50 of 1 to 10 µM.

`COC(=O)CCC#Cc1cccc2c1CC(C(=O)N1CCC=C(c3ccc4oc(C(=O)N(C)C)cc4c3)C1)N(C=O)C2` (stereo not drawn) [Example I-175] displayed a half-maximal inhibitory concentration (IC50) of 0.1 to 1 µM.

As to `CC(=O)NC(Cn1ccnn1)C(=O)N1CCC=C(c2ccc3oc(C(=O)N(C)C)cc3c2)C1` (stereo not drawn) [Example I-178], the IC50 fell in the range of 10 to 100 µM.

`CC(=O)N1CCC(c2cccc3c2CC(C(=O)N2CCC=C(c4ccc5oc(C(=O)N(C)C)cc5c4)C2)N(C=O)C3)CC1` (stereo not drawn) [Example I-180]: the IC50 lay in the range of 10 to 100 µM.

`CN(C)C(=O)c1cc2cc(C3=CCCN(C(=O)C4Cc5c(cccc5C5CCNCC5)CN4C=O)C3)ccc2o1` (stereo not drawn) [Example I-181] showed an IC50 of 10 to 100 µM.

Regarding `COC(=O)CCC#Cc1cc(C2=CCCN(C(=O)C3Cc4ccccc4CN3C=O)C2)cc2cc(C(=O)N(C)C)oc12` (stereo not drawn) [Example I-184], the IC50 is < 0.1 µM.

Regarding `CN(C)C(=O)c1cc2cc(C3=CCCN(C(=O)C4Cc5c(cccc5-c5ccc(O)cc5)CN4C=O)C3)ccc2o1` (stereo not drawn) [Example I-187], the IC50 fell in the range of 10 to 100 µM.

As for `CCC(=O)N1Cc2ccccc2CC1C(=O)N1CCC=C(c2ccc3oc(C(=O)N(C)C)cc3c2)C1` (stereo not drawn) [Example I-188], the IC50 lay within 10 to 100 µM.

Take `CC(=O)N1CCC(c2cc(C3=CCCN(C(=O)CCn4ccnn4)C3)cc3cc(C(=O)N(C)C)oc23)CC1` [Example I-190]: the IC50 is < 0.1 µM.

`CN(C)C(=O)c1cc2cc(C3=CCCN(C(=O)CCn4ccnn4)C3)cc(N3CCNCC3)c2o1` [Example I-191] returned an IC50 of 10 to 100 µM.

For the compound `CN(C)C(=O)c1nc2cc(C3=CCCN(C(=O)CCn4ccnn4)C3)ccc2s1` [Example I-192], the IC50 was 10 to 100 µM.

In the case of `CC(=O)N1CCc2ccc(CC(=O)N3CCC=C(c4ccc5oc(C(=O)N(C)C)cc5c4)C3)cc2C1` [Example I-193], the IC50 lay in the range of 10 to 100 µM.

In the case of `CN(C)C(=O)c1cc2ncc(C3=CCCN(C(=O)CCn4ccnn4)C3)cc2[nH]1` [Example I-194], the IC50 fell in the range of 1 to 10 µM.

With `CN(C)C(=O)c1cc2ccc(C3=CCCN(C(=O)CCn4ccnn4)C3)nc2[nH]1` [Example I-196], the 50% inhibitory concentration (IC50) was < 0.1 µM.

The compound `CN(C)C(=O)c1nc2ccc(C3=CCCN(C(=O)C4Cc5ccccc5CN4C=O)C3)cc2[nH]1` (stereo not drawn) [Example I-198] yielded an IC50 of 1 to 10 µM.

`CN(C)C(=O)c1nc2cc(C3=CCCN(C(=O)CCc4ccccn4)C3)ccc2[nH]1` [Example I-199] had an IC50 of 10 to 100 µM.

On to `CN(C)C(=O)c1cc2cc(C3=CCCN(C(=O)CCc4ccccn4)C3)ccc2[nH]1` [Example I-200], for which the IC50 fell in the range of 1 to 10 µM.

Turning to `CN(C)C(=O)c1cc2cc(C3=CCCN(C(=O)C4Cc5ccccc5CN4C=O)C3)ccc2[nH]1` (stereo not drawn) [Example I-201], the IC50 was 1 to 10 µM.

`CN(C)C(=O)c1cc2ccc(C3=CCCN(C(=O)C4Cc5ccccc5CN4C=O)C3)cc2[nH]1` (stereo not drawn) [Example I-202]: the IC50 is 0.1 to 1 µM.

Regarding `CNCc1cc(C2=CCCN(C(=O)CCn3ccnn3)C2)cc2cc(C(=O)N(C)C)oc12` [Example I-203], the IC50 was in the range of 0.1 to 1 µM.

As to `CNc1ccc(-c2cc(C3=CCCN(C(=O)CCn4ccnn4)C3)cc3cc(C(=O)N(C)C)oc23)cc1` [Example I-204], the half-maximal inhibitory concentration (IC50) was < 0.1 µM.

Take `CN(C)C(=O)c1cc2cc(C3=CCCN(C(=O)CCc4nccc5ccccc45)C3)ccc2o1` [Example I-206]: the IC50 fell in the range of 10 to 100 µM.

Compound `CN(C)C(=O)c1cc2cc(C3=CCCN(C(=O)C4c5ccccc5CCN4C)C3)ccc2o1` (stereo not drawn) [Example I-208] registered an IC50 of 10 to 100 µM.

The compound `CN(C)C(=O)c1cc2ccc(C3=CCCN(C(=O)CCc4ccccn4)C3)cc2[nH]1` [Example I-212] gave a half-inhibitory concentration (IC50) of 1 to 10 µM.

In turn, `NC(=O)c1cc2cc(C3=CCCN(C(=O)CCn4ccnn4)C3)ccc2o1` [Example I-213] had an IC50 of 10 to 100 µM.

`CN(C)C(=O)c1nc2cc(C3=CCCN(C(=O)CCn4ccnn4)C3)ccc2o1` [Example I-214] came in with an IC50 of 10 to 100 µM.

As to `CN(C)C(=O)c1cc2cc(C3=CCCN(C(=O)CCc4cnccn4)C3)ccc2o1` [Example I-216], the IC50 lay in the range of 10 to 100 µM.

For the compound `CN(C)C(=O)c1cc2cc(C3=CCCN(C(=O)CCn4nnc5ccccc54)C3)ccc2o1` [Example I-217], the half-maximal inhibitory concentration (IC50) is 10 to 100 µM.

As to `CC(=O)NCc1ccccc1-c1ccccc1CC(=O)N1CCC=C(c2ccc3oc(C(=O)N(C)C)cc3c2)C1` [Example I-219], the IC50 fell in the range of 10 to 100 µM.

`CN(C)C(=O)c1cc2cc(C3=CCCN(C(=O)CCc4cccnn4)C3)ccc2o1` [Example I-220] yielded a half-inhibitory concentration (IC50) of 0.1 to 1 µM.

As to `CN(C)C(=O)c1cc2cc(C3=CCCN(C(=O)Cc4nc5ccccc5s4)C3)ccc2o1` [Example I-221], the IC50 was 10 to 100 µM.

In turn, `CN(C)C(=O)c1cc2cc(C3=CCCN(C(=O)CCn4ccnn4)C3)cnc2[nH]1` [Example I-222] came in with an IC50 of 0.1 to 1 µM.

As for `CN(C)C(=O)c1cc2cc(C3=CCCN(C(=O)CCn4ccnn4)C3)ncc2[nH]1` [Example I-224], the IC50 lay within 0.1 to 1 µM.

`CN(C)C(=O)c1cc2cc(C3=CCCN(C(=O)CCc4ccnnc4)C3)ccc2o1` [Example I-225] came in with an IC50 of 1 to 10 µM.

`CN(C)C(=O)c1nc2ccc(C3=CCCN(C(=O)CCn4ccnn4)C3)cc2o1` [Example I-226] yielded an IC50 of 10 to 100 µM.

Compound `CN(C)C(=O)c1nc2ccc(C3=CCCN(C(=O)CCn4ccnn4)C3)cc2s1` [Example I-227] had an IC50 of 0.1 to 1 µM.

With `CN(C)C(=O)c1cc2cc(C3=CCCN(C(=O)CCc4ncccn4)C3)ccc2o1` [Example I-231], the IC50 lay in the range of 10 to 100 µM.

In turn, `CN(C)C(=O)c1nc2cc(C3=CCCN(C(=O)CCn4ccnn4)C3)ccc2[nH]1` [Example I-234] registered an IC50 of 1 to 10 µM.

`CCCN(C)C(=O)c1cc2cc(C3=CCCN(C(=O)CCn4ccnn4)C3)ccc2o1` [Example I-235] gave an IC50 of 0.1 to 1 µM.

As to `CNC(=O)c1cc2cc(C3=CCCN(C(=O)CCn4ccnn4)C3)ccc2o1` [Example I-236], the IC50 is 1 to 10 µM.

Compound `CN(C)C(=O)c1cc2cc(C3=CCCN(C(=O)CCc4nc5ccccc5s4)C3)ccc2o1` [Example I-237] yielded an IC50 of 1 to 10 µM.

Source of the values: patent publication US20250214977A1, “STAT6 INHIBITORS AND USES THEREOF” (Kymera Therapeutics, Inc., priority 2024, published 2025).
